# Experimental data published in the supplement of paper PMC11417369.
# ± gives the standard deviation of the averaged measurements. Some of the results follow.
# System: PfAP2-LT AP2 domain (GST-tagged)
# Assay: gcPBM binding intensity (ln(normalized median fluorescence intensity)); higher = stronger DNA binding
# How it was run: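 GST-tagged P. falciparum DNA-binding domains, expressed in E. coli (about 25 μg on average), were applied for 1 h to an Agilent 4 × 180k array of primer-extended double-stranded 36-bp intergenic genomic probes plus negative controls. The binding buffer was 1× PBS with 1% milk, 0.2 mg/ml BSA, 0.5% salmon testes DNA and 0.03% Triton X-100. Bound protein was detected with Alexa488 anti-GST antibody and scanned at 488 nm. Binding intensity is the highest Masliner-normalised natural-log median intensity across replicate spots of either probe orientation.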
row,Sequence,gcPBM binding intensity (ln)
1,AGCCACGGGTTATATACACACATAATCAAATAAAAT [CACACA_site6117],9.12 ± 0.57
2,AAAAAATTATATAATAATAGAACTATACATTTTATT [GTGCAC_negctrl_site645],8.44 ± 0.47
3,ACATAATATATATATTGTACAAATATATTATTGTTA [XGTACX_site3385],8.7 ± 0.35
4,AGCTATATAAATAATACATGCATTGTTCAGGTATTT [TGCATGCA_site964],8.88 ± 0.4
5,ATTTATAATATTCAAGTGCATATATATTTTTTACTT,8.85 ± 0.52
6,TAAAGAAATTCTTCATGTACTTATTATTTCTCTTTT [XGTACX_site6817],8.6 ± 0.57
7,GTTATACAAAATAATACATGCATGTCCTACATATAT [TGCATGCA_site320],9.35 ± 0.59
8,TATGGAATAAATTTATCCATACATCTTATAACATAT [XGTACX_negctrl_site500],8.54 ± 0.35
9,TAGTTCCTCAAAAATTTCCTTTGTCATTTTATTCAC [GTGCAC_negctrl_site20],8.62 ± 0.53
10,TACATAAATTAATAGTCACACACGTATTTTTTATAT [CACACA_site8806],8.99 ± 0.42
11,TACATATTGCACAAATAAAAAAGAACAAAAAAAAAA [CACACA_negctrl_site1200],8.63 ± 0.49
12,GAATTTCGATATATGTGTACGCATTTGTATTATAGG [XGTACX_site6332],9.03 ± 0.35
13,ATAATATTTCTTACCTTTGGATGTTCTAATTTTTTT [CACACA_negctrl_site1317],8.86 ± 0.49
14,ATATATATATATATATGTACATATATTCGATTATTA [XGTACX_site557],9.695 ± 0.035
15,AAAAATAACATATAAACACACATATATATATATATA [CACACA_site3802],9.825 ± 0.0071
16,TACTTTATATTATATATATATATATATATATATATA [CACACA_negctrl_site1765],9.2 ± 0.16
17,TATATAAAATAATAATGTACTCATTAAAATTATAGA [XGTACX_site4507],8.44 ± 0.5
18,ATGTATCCAATAGGAGTGCATAATTCTATTAACACC,8.91 ± 0.42
19,AAAGAAAAAAAAAAAAAAAAAAAAAAAATTATACAT [CACACA_negctrl_site7],8.45 ± 0.64
20,AATTAAATATTATAAACACACATATATATTATTTTT [CACACA_site865],8.71 ± 0.36
21,AAACGAACATATAAATGTACATATATATACATATAT [XGTACX_site8086],8.95 ± 0.4
22,TATGTATTAAATTTTACACACATGATTCTCTATATA [CACACA_site2298],9.13 ± 0.41

row,Sequence,gcPBM binding intensity (ln)
1,ATTGTAAATATAGAAGTGCAAAAGGGTATGAAATGA,9.02 ± 0.49
2,TACAAAAAAAATGTATTTAGGACATATATATGTTTA [XGTACX_negctrl_site455],8.48 ± 0.43
3,TACATAAAATATATCACACATATAATATATATATAT [CACACA_site5834],8.86 ± 0.35
4,AAAAAAAAAAAAAAATATAAATATATATATATATAT [GTGCAC_negctrl_site28],9.1 ± 0.12
5,AGTGTAATTTTCCACTGTACTTTTCTTGTATATAAT [XGTACX_site4201],8.86 ± 0.4
6,ATATATATTAATATTTGTACATAAAATTATTTCAAT [XGTACX_site5364],8.55 ± 0.39
7,AAAGTAACACACTAATATTTTAACAAATAATATATA [GTGCAC_negctrl_site132],8.79 ± 0.48
8,AATACATTTATGAGCTGTACACATTTATTTGAGCTA [XGTACX_site7695],8.74 ± 0.3
9,ACAAAATATACAAAATGTACAAAATATACAAAATGT [XGTACX_site6467],9.12 ± 0.43
10,TTATATCATTTTCCTGCACACATAAATTTATATAAT [CACACA_site8257],9.01 ± 0.37
11,CATATGTATTTATTCACACATATATATATATATATA [CACACA_site4207],9.74 ± 0.12
12,TATACAGATAAATACACACACACATATATATATATA [CACACA_site4845],10.3 ± 0.25
13,TTATTCTAAAAGTGTTTGCACTTTTATAATCATATA [GTGCAC_site9929],8.43 ± 0.55
14,TACCTTTCTTATTATTGAAAAGGAATATATAAATAG [CACACA_negctrl_site272],8.18 ± 0.28
15,ATACAAAAAATCACATGTACATATTCTTAAATGGTA [XGTACX_site8502],8.77 ± 0.46
16,AATAATAATTTGAATACACACAATAATATATATATA [CACACA_site2059],8.9 ± 0.38
17,ATATATAAATATATATGTACACACATATACATGTTG [XGTACX_site6653],9.2 ± 0.38
18,AATTATTCTATATATTGTACATGTTTGTTTTTTTTT [XGTACX_site3130],9.03 ± 0.46
19,TGTTTAATCACATGTTTGCACTTTCCTTTTGTAAAT [GTGCAC_site9893],9.06 ± 0.47
20,TGATTCTGTCATGGTGCACACCAGAACCATTATAAA [CACACA_site1965],8.65 ± 0.24
21,TCTTAAAATCGGAAATGAAATAAAGTTTACAATATG [TGCATGCA_negctrl_site553],8.47 ± 0.55
22,AAAACAAACAGACACACACACATATATATATATATA [CACACA_site3655],10.4 ± 0.24
